# Measurements reported in PMC4336329 (PLoS ONE, 2015).
# Hit rate of the full screen: of about 310,000 compounds, about 2,200 (0.71%) showed an effect of 50% or more. The effect is printed as a negative number. The list shows a part of the results.
# Target: human ether-à-go-go-related gene (hERG) potassium channel (human, UniProt Q12809)
# Test: primary screen, population patch clamp on CHO cells stably expressing hERG
# Chain of human ether-à-go-go-related gene (hERG) potassium channel (Q12809 whole entry, looked up): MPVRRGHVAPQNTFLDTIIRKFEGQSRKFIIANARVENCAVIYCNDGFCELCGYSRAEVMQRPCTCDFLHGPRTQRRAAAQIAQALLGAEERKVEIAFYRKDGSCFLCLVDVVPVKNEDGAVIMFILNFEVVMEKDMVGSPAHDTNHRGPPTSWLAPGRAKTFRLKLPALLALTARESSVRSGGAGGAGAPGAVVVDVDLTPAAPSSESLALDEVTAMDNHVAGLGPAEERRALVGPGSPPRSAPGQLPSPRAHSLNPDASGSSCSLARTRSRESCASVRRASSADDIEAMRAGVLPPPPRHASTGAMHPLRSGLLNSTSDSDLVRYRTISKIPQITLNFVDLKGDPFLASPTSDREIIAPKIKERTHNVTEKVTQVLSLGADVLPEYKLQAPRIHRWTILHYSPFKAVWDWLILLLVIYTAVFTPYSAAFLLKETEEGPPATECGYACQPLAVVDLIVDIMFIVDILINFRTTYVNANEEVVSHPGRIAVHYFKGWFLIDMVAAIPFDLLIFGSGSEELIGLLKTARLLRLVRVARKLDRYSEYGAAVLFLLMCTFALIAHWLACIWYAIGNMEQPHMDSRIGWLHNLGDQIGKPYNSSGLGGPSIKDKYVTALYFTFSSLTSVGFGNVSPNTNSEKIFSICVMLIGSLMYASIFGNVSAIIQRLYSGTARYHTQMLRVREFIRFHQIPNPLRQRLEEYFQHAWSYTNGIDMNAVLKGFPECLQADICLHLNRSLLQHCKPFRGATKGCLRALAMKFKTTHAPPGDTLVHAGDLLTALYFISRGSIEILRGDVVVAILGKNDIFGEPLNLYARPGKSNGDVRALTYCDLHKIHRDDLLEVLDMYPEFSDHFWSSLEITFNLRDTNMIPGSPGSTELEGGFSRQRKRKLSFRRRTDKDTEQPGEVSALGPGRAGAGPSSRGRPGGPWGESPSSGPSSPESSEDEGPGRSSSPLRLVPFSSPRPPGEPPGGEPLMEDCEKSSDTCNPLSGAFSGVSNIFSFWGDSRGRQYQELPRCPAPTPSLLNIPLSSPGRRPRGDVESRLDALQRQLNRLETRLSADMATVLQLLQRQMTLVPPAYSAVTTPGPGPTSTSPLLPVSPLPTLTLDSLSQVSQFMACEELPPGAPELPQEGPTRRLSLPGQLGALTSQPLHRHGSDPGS
row,SMILES,"hERG current change (%, negative = inhibition) at 1uM [%]"
1,CC(C)(C)Cc1nnc(NS(=O)(=O)Cc2ccccc2)s1,6.37
2,CCCCOn1c(C)c(C(C)=O)c2c3no[n+]([O-])c3ccc21,-9.31
3,C=CCC1(C#N)C(SC)=NC2=C(C(=O)CC(C)(C)C2)C1c1ccc(Br)cc1 (stereo not drawn),9.38
4,CCOC(=O)C1CCCN(Cc2cc(=O)oc3cc(C)c(C)cc23)C1 (stereo not drawn),9.9
5,Cc1ccc(-c2nc(CNC(=O)c3cc(C)on3)cs2)cc1,17.9
6,COC(=O)c1ccc(Oc2ccc(C(F)(F)F)cn2)cc1,11.9
7,CNC(=O)COC(=O)c1ccccc1Nc1ccccc1,3.47
8,O=C(O)CCCn1cc(NC(=O)COc2ccccc2)cn1,8.62
9,CCCCNC(=O)/C=C/c1cccs1,24.3
10,Cc1noc(C)c1CSc1nc2ccccc2s1,5.56
11,COc1ccc(NC(=O)CSc2nnc(Cc3cccs3)n2-c2ccc(C)cc2)cc1,-8.63
12,O=C(Nc1ccc(N2CCN(C(=O)c3cccs3)CC2)cc1)c1ccc([N+](=O)[O-])o1,-15.8
13,COc1ccc(OC)c(NC(=O)CCNS(=O)(=O)c2ccc3[nH]c(=O)oc3c2)c1,11.3
14,Cn1c(SCC(=O)NCCc2ccccc2)nnc1-c1ccco1,6.51
15,Cc1nc2ccccc2c(=O)n1NC(=O)C1CCC(C(C)(C)C)CC1 (stereo not drawn),10.4
16,COc1ccc(NC(=O)C2CCN(S(=O)(=O)c3ccc(C)cc3)CC2)cc1OC,-20
17,CCOc1ccc(CCNC(=O)C2CCCN(S(C)(=O)=O)C2)cc1OCC (stereo not drawn),10.9
18,O=C(c1ccc2c(c1)OCO2)C1CCCN(CC2CCCCC2)C1 (stereo not drawn),-44.2
19,O=C(c1cccc(C(F)(F)F)c1)C1CCCN(C(=O)CN2CCOC2=O)C1 (stereo not drawn),8.48

row,SMILES,"hERG current change (%, negative = inhibition) at 1uM [%]"
1,CCOC(=O)C1(C)C=C(Nc2ccc(C)cc2)C(=O)N1c1ccc(C)cc1 (stereo not drawn),11.1
2,C=CCn1c(C)cc(C(=O)CSc2nc3ccccc3o2)c1C,21.2
3,COc1cccc(SCC2(O)CCN(C(=O)c3ccc(Cl)cc3)CC2)c1,-7.75
4,COc1ccc(NC(=O)C23CC4CC(C2)CC(n2cnc(Br)n2)(C4)C3)cc1OC,13.4
5,CCOc1ccc(CNCc2ccc(C(=O)O)cc2)cc1OC.Cl,5.44
6,O=C(c1ccc(NS(=O)(=O)c2ccc3c(c2)OCCO3)cc1)N1CCCCC1,3.87
7,CCc1ccc(OCc2ccc(C(=O)OC)o2)cc1,22.1
8,COc1ccc(NC(=O)CCSc2nnc(C)s2)cc1,27.4
9,COC(=O)CCCC1=CC2=CC(=O)C(C)(OC(=O)c3cccs3)C(=O)C2=CO1 (stereo not drawn),11
10,CC(NC(=O)NC1CCCCC1)C(c1cccs1)N1CCN(c2ccccc2)CC1 (stereo not drawn),-2.77
11,C=CCNCCCCOc1ccc(C)cc1[N+](=O)[O-],-7.79
12,CC(C)CCN1C(Nc2ccccc2)=NC[C@@H]1C,0.156
13,Cc1cc(C)nc(/N=C(\N)Nc2cccc([N+](=O)[O-])c2)n1,-2.85
14,COc1ccccc1N(C)S(=O)(=O)c1ccc(C(=O)Nc2nc(C)c(C(C)=O)s2)cc1,6.66
15,CCCNC(=O)/C=C/c1ccc(C(C)C)cc1,4.97
16,CC1CCN(C(=O)CCNS(=O)(=O)c2ccccc2)CC1,5.23
17,N=C1/C(=C\c2ccc(-c3cccc(C(=O)O)c3)o2)C(=O)N=C2SC=C(c3ccccc3)N12,5.77
18,C=CCn1c(SCc2nc3ccccc3c(=O)[nH]2)nc2scc(C3CC3)c2c1=O,6.31
19,CCCCN1CC(=O)N2[C@H]3c4cc(Cl)ccc4OC[C@@H]3[C@H](c3ccccc3)[C@]2(C)C1=O,13.1

row,SMILES,"hERG current change (%, negative = inhibition) at 1uM [%]"
1,Cc1ccc(S(=O)(=O)Nc2cccc(C(=O)NCC3(N4CCCCC4)CCCCC3)c2)cc1F,-76.4
2,COCCn1cc(C(=O)N2CCC(C)CC2)c2c3ccccc3n(C)c2c1=O,-3.88
3,Cc1ccc(C)c2[nH]c(=O)c(CN(CCCN(C)C)C(=O)NCc3ccccc3)cc12,-16.1
4,Cc1cc(NC(=O)c2cccs2)n(-c2ccccc2)n1,7.12
5,CC(C)c1nc2sc3c(NCc4ccccc4)ncnc3c2c2c1COC(C)(C)C2,19.3
6,CCn1cc(S(=O)(=O)CC(=O)Nc2cc(C)ccc2C)c2ccccc21,9.05
7,Cc1c(CCC(=O)NCC(=O)O)c(=O)oc2cc3occ(-c4ccccc4)c3cc12,13
8,CCc1ccc(N(C(=O)c2csnn2)C(C(=O)NC(C)(C)CC)c2cccnc2)cc1 (stereo not drawn),1.95
9,CC(=O)Nc1ccc(NC(=O)Nc2cc(C)cc(C)c2)cc1,11.8
10,CSc1cccc2sc(NC(=O)C3=COCCO3)nc12,8.18
11,COc1ccccc1-n1ccnc1SCC(=O)NC(C)(C)C,11.1
12,CCN1CCN(C(=O)c2oc(=O)c3ccccc3c2-c2ccc(C)cc2)CC1,-1.55
13,Cc1ccc(O)c(N=Nc2nccs2)c1,12.5
14,NC(=NCCCCCCN=C(N)/N=C(\N)Nc1ccc(Cl)cc1)/N=C(\N)Nc1ccc(Cl)cc1,-1.46
15,Cc1cccc(C)c1NC(=O)CNC(=O)c1ccc(N2CCCC2=O)cc1,6.04
16,CSc1nccc(Nc2ccccc2)c1C#N,14.7
17,COc1ccc(CNc2ncnc3c2[nH]c2ccccc23)cc1,12.6
18,COC(=O)C1=C(c2ccccc2)C[C@@H]2CC[C@H]1N2C(=O)NC1CC1,7.4
19,Cc1ccc(C(=O)NNC(=O)c2ccncc2)cc1S(=O)(=O)N1CCCCC1,9.84
